Hit rate of the full screen: of about 310,000 compounds, about 14,000 (4.5%) showed an effect of 50% or more. Effects have a minus sign here. The list shows a part of the results.
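Note: peak tail current of the secondary pulse compared with the same well before compound.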

Chain of human ether-à-go-go-related gene (hERG) potassium channel (Q12809 whole entry, looked up): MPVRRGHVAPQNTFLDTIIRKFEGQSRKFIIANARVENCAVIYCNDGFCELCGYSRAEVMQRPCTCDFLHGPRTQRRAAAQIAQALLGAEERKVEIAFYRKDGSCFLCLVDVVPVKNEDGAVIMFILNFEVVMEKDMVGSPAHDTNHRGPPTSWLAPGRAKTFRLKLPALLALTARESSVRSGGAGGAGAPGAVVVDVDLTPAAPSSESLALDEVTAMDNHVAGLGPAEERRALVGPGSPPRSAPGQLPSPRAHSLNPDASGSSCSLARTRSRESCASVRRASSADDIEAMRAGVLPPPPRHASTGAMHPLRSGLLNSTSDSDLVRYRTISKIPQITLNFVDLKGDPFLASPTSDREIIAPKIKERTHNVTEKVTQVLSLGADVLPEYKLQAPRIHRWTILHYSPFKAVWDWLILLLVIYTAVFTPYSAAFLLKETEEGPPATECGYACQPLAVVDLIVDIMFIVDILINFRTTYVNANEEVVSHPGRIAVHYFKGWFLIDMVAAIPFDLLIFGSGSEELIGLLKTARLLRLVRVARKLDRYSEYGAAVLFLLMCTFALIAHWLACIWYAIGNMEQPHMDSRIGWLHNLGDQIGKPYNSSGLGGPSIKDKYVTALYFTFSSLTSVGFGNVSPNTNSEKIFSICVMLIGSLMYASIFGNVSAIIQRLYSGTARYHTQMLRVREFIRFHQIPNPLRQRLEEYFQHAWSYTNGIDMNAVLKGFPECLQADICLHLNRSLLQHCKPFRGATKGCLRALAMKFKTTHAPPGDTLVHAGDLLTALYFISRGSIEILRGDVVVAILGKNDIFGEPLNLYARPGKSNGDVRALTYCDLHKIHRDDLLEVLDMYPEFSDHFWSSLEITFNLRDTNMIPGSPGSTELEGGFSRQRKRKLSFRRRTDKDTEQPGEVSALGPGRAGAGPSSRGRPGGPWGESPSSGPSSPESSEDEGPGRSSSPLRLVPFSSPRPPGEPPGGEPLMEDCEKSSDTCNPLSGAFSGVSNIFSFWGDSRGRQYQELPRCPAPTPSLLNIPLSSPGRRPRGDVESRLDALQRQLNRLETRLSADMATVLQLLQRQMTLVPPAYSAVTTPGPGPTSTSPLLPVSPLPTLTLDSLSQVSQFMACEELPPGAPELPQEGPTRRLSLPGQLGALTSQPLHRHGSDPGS

This assay addresses human ether-à-go-go-related gene (hERG) potassium channel (human, UniProt Q12809). In words: primary screen, population patch clamp on CHO cells stably expressing hERG.
Regarding `O=C(CN1C(=O)CSC1=O)N1CCCC(Nc2ccc(F)cc2)C1` (centres unmarked), the “hERG current change (%, negative = inhibition) at 10uM” value amounted to 14.4%.
The result for `O=C1NC(c2ccccc2)=C(c2ccc3ccccc3n2)C(c2ccncc2)N1` (centres unmarked) reads -36.6%; that for `COc1ccc(C/C(N)=N/OC(=O)COc2ccccc2C)cc1`, -1.6%; that for `Cc1ccc(-c2nnc(SCC(=O)NC3CC3)n2N)cc1`, 8.22%.
In the case of `O=c1c2ccccc2nc(-c2ccco2)n1Cc1ccccc1`, the “hERG current change (%, negative = inhibition) at 10uM” value is -48%.
Turning to `Cl.O.O=C(CCN1CCOCC1)Nc1ccc2c(c1)N(C(=O)CN1CCOCC1)c1ccccc1CC2`, the “hERG current change (%, negative = inhibition) at 10uM” value came out at 1.75%.
Regarding `Cc1cccc(CCN(CC(=O)NC(C)(C)C)C(=O)c2csnn2)c1`, the “hERG current change (%, negative = inhibition) at 10uM” value came out at 19.9%.
The result for `COc1ccccc1NS(=O)(=O)c1cc(NC(=S)Nc2cc(C)cc(C)c2)ccc1Cl` reads 12.1%; that for `CCOc1ccc(Br)cc1S(=O)(=O)NCc1ccc(S(N)(=O)=O)cc1`, -1.3%; that for `COC(=O)c1cc(S(=O)(=O)NC2CCCCC2)cn1C`, 10.5%.
In the case of `Cc1cc(F)ccc1NCC(=O)Nc1ccccc1Br`, the “hERG current change (%, negative = inhibition) at 10uM” value is reported as -3.3%.
Consider `Cc1cccc(NC2=C(Cl)C(=O)OC2OC(=O)c2ccco2)c1` (centres unmarked), for which the “hERG current change (%, negative = inhibition) at 10uM” value is reported as -7.49%.
Turning to `O=C1OCc2ccc(NC(=O)C3CC3)cc21`, the “hERG current change (%, negative = inhibition) at 10uM” value was 2.07%.
With `CSc1nc2ccc(NS(=O)(=O)c3ccc([N+](=O)[O-])cc3)cc2s1` the figure was -5.24%; with `CC(C)(CO)CN1CCC(n2nccc2NC(=O)C2CCCC2)CC1`, 11.4%; with `COc1ccc2c(ccn2S(=O)(=O)c2ccccc2)c1`, 11.4%.
For `CCOc1ccc(C(=O)NCc2ccncc2)cc1OCC`, the “hERG current change (%, negative = inhibition) at 10uM” value is given as 2.62%.
`COc1ccccc1C(=O)Nc1ccnn1C1CCN(Cc2cnn(C)c2C)CC1`: the “hERG current change (%, negative = inhibition) at 10uM” value is reported as -63.7%.
With `COc1cccc(NC(=O)c2nc(S(C)(=O)=O)ncc2Cl)c1`, the “hERG current change (%, negative = inhibition) at 10uM” value is -33.7%.
Take `Cc1cccc(N(CC(=O)NC2CCCC2)C(=O)CS(=O)CC(=O)Nc2ccc3c(c2)OCO3)c1` (centres unmarked): the “hERG current change (%, negative = inhibition) at 10uM” value is -5.43%.
The result for `COc1cccc(C2N(c3cccc(Cl)c3)C(=O)C3CCCN32)c1` (centres unmarked) reads -0.999%.
On to `Cc1nn(C)c(N)c1[N+](=O)[O-]`, for which the “hERG current change (%, negative = inhibition) at 10uM” value turned out to be 20.5%.
The result for `COc1cc(C(=O)NC2CCCCCCC2)cc(OC)c1OC` reads -11.7%; that for `CC(C)(C)S(=O)(=O)c1ccc(S(=O)(=O)C(C)(C)C)s1`, 22.8%.
As for `COc1cccc(CC2(CO)CCN(C(=O)NC3CCCCC3)CC2)c1`, the “hERG current change (%, negative = inhibition) at 10uM” value is listed as -13.2%.
With `COC(=O)C1=C(c2ccc3ccccc3c2)C[C@@H]2CC[C@H]1N2C(=O)NCCCOC(C)C` the figure was -7.68%; with `CCN(CC(=O)Nc1c(F)cccc1F)C(=O)CCNC(=O)c1ccccc1OC`, -9.56%; with `CSCC[C@H](NC(=O)Nc1cccc(Br)c1)C(=O)O`, -0.789%.
With `CCOC(=O)c1cc(-c2ccco2)nn1-c1ccc(C)cc1` the figure was 1.45%.
With `Cn1nnc(-c2ccc(OCc3ccccc3F)cc2)n1`, the “hERG current change (%, negative = inhibition) at 10uM” value is reported as 6.69%.
For `O=C(N1CCC(n2nc(-c3ccccc3)oc2=O)CC1)C1(c2ccccc2)CC1`, the “hERG current change (%, negative = inhibition) at 10uM” value is -17.5%.
With `COCC(=O)Nc1nc2ccc(S(C)(=O)=O)cc2s1` the figure was 5.83%; with `O=c1[nH]c(/C=C\c2cccc(F)c2)nc(O)c1[N+](=O)[O-]`, 18.9%.
Turning to `O=C(CNC(=O)c1cccc(F)c1)OCCOc1cccc(Cl)c1`, the “hERG current change (%, negative = inhibition) at 10uM” value was -45.6%.
In the case of `O=C(Nc1ccc(O)cc1)/C(=C/c1ccco1)NC(=O)c1ccccc1`, the “hERG current change (%, negative = inhibition) at 10uM” value turned out to be 16.2%.
The result for `COc1ccc(CC(=O)NCc2ccc3c(c2)OCO3)cc1` reads 4.71%; that for `CCc1ccc(Nc2ccc(C(=O)O)cc2[N+](=O)[O-])cc1`, 7.03%; that for `CCN(CC)c1ncnc2ccc(Br)cc12`, -16%.
On to `CCc1ccccc1NC(=O)COc1ccc2oc(-c3ccc(OC)cc3)cc(=O)c2c1`, for which the “hERG current change (%, negative = inhibition) at 10uM” value was determined as 5.29%.
`O=C(Nc1ccc(Cl)cn1)C1CCN(S(=O)(=O)c2cccs2)CC1`: the “hERG current change (%, negative = inhibition) at 10uM” value is on record as -30.3%.
The result for `Cc1ccc(-c2cccc(C(=O)NCc3ccccc3)n2)c2ccccc12` reads 17.8%; that for `CC(=O)c1sc(NC(=O)c2ccccc2F)nc1C`, -9.34%.
Consider `CCOC(=O)CNc1c(-c2ccc(OC)cc2)nc2ccc(Cl)cn12`, for which the “hERG current change (%, negative = inhibition) at 10uM” value was -73.5%.
Take `CCOC(=O)c1sc(NC(=O)c2ccc(CC)s2)nc1C`: the “hERG current change (%, negative = inhibition) at 10uM” value is reported as -1.03%.
`CN1CCN(S(=O)(=O)c2ccc(CNC(=O)c3ccccc3)s2)CC1`: the “hERG current change (%, negative = inhibition) at 10uM” value is 23.1%.
In the case of `C/C(=C\C(=O)c1ccccc1)NNC(=O)c1ccc(Cl)cc1`, the “hERG current change (%, negative = inhibition) at 10uM” value came to 6.68%.
With `CC(C)(C)N(Cc1ccccc1)C(=O)c1ccc(Cl)cc1[N+](=O)[O-]` the figure was 16.1%; with `O=C(OCCCCN1C(=O)c2ccccc2C1=O)c1ccc(Br)o1`, -0.77%.
Turning to `Oc1ccc(Cc2ccc(Cl)cc2)c(O)c1`, the “hERG current change (%, negative = inhibition) at 10uM” value came out at 16.7%.
With `N#Cc1cc([N+](=O)[O-])ccc1NCCN1CCOCC1` the figure was -41%; with `Cc1sc2ncnc(N3CCN(Cc4ccccc4)CC3)c2c1-c1ccccc1`, -34.8%; with `CCC1(c2ccc(F)cc2)NC(=O)N(CC(=O)Nc2ccc(S(N)(=O)=O)cc2)C1=O` (centres unmarked), 18.5%.
With `O=c1c2ccccc2nc(/C=C/c2ccc3c(c2)OCO3)n1-c1cccc(O)c1` the figure was -7.38%; with `C[N+](C)(C)Cc1ccccc1.[Cl-]`, 16.3%; with `CCOc1ccc(-n2c(=O)c3c(C)c(C)sc3n(CC(=O)NCc3ccco3)c2=O)cc1`, 3.17%.
For the compound `CCOc1nc(SCCOc2ccc(Cl)cc2Cl)nc(N(C)C)n1`, the “hERG current change (%, negative = inhibition) at 10uM” value is given as 4.71%.
Regarding `Cc1nn(C(C)C(=O)NCCCN2CCCC2)c(=O)c2nn(-c3ccccc3)c(C)c12` (centres unmarked), the “hERG current change (%, negative = inhibition) at 10uM” value stood at 13.1%.
As to `CCN1C(=O)c2c(C)nc3ccccc3c2C1=O`, the “hERG current change (%, negative = inhibition) at 10uM” value is listed as -2.96%.
With `O=C(O)c1ccccc1Nc1ccnc(Cl)n1`, the “hERG current change (%, negative = inhibition) at 10uM” value was found to be 8.46%.
Take `Cl.NOCC(=O)O`: the “hERG current change (%, negative = inhibition) at 10uM” value is on record as 1.9%.
On to `Oc1c(Br)cc(Br)cc1C=NCc1ccccc1`, for which the “hERG current change (%, negative = inhibition) at 10uM” value is 2.98%.
The result for `CCCCN1CCc2c([nH]c3ccc(C)cc23)C1=O` reads 12.7%.
As to `CC(C)CN1CCN(Cc2cccn2-c2ccccn2)CC1CCO` (centres unmarked), the “hERG current change (%, negative = inhibition) at 10uM” value was -55.9%.
Regarding `COC(=O)c1ccccc1NC(=O)Cc1ccccc1OC`, the “hERG current change (%, negative = inhibition) at 10uM” value is -19%.
With `O=C(CC1C(=O)NCCN1Cc1ccc(-c2ccccc2)cc1)NCC1CC1` (centres unmarked), the “hERG current change (%, negative = inhibition) at 10uM” value is recorded as -25.1%.
Turning to `Cc1c(C(=O)NCC2CCCO2)oc2ccc(S(=O)(=O)N3CCCC3)cc12` (centres unmarked), the “hERG current change (%, negative = inhibition) at 10uM” value was -8.49%.
As for `Nc1cc(C(=O)O)ccc1Sc1ccccc1C(=O)O`, the “hERG current change (%, negative = inhibition) at 10uM” value is reported as 22.2%.
Turning to `CCC(C)c1ccc(NC(=O)C2CC3CCC2C3)cc1` (centres unmarked), the “hERG current change (%, negative = inhibition) at 10uM” value was -24.1%.
In the case of `CCC1(CC)C(=N)N(C)C(=O)NC1=O`, the “hERG current change (%, negative = inhibition) at 10uM” value is reported as 23.1%.
The result for `O=C(COc1ccc2ccccc2c1)NC1=NCCS1` reads 12.1%.
`CCOC(=O)C1(Cc2ccccc2C)CCCN(Cc2cn(C)nc2C)C1` (centres unmarked): the “hERG current change (%, negative = inhibition) at 10uM” value is on record as 2.42%.
Consider `O=c1[nH]c(=O)n(C2CCCCCC2)c(O)c1C=NCCCN1CCOCC1`, for which the “hERG current change (%, negative = inhibition) at 10uM” value was -0.344%.
In the case of `O=C(c1cc2ccccc2oc1=O)N1CCN(C(=O)C2CCCO2)CC1` (centres unmarked), the “hERG current change (%, negative = inhibition) at 10uM” value is -4.1%.
Regarding `COC(=O)c1sccc1NC(=O)CC1C(=O)NCCN1C(=O)Nc1ccc(F)cc1F` (centres unmarked), the “hERG current change (%, negative = inhibition) at 10uM” value was 11.8%.
The result for `COc1ccccc1Cn1c(=S)[nH]c2cc(C(=O)NC(C)C)ccc2c1=O` reads 10.5%.
The result for `CCn1c(CNc2ccc(C(=O)O)cc2)nc2ccccc21` reads -18.4%; that for `CCn1nnc(NC(=O)c2cccnc2)n1`, 13.5%; that for `CC(=O)c1cccc(N(CC(=O)Nc2ccc(S(=O)(=O)N3CCOCC3)cc2)S(C)(=O)=O)c1`, 8.48%.
For the compound `O=C(c1cnn2c(C(F)F)cc(C3CC3)nc12)N1CCc2ccccc2C1`, the “hERG current change (%, negative = inhibition) at 10uM” value is -38.3%.
With `N=C1SCC(=O)N1Cc1ccccc1` the figure was 17.2%.
Turning to `O=C(CC1Oc2ccccc2NC1=O)NCCCN1CCOCC1` (centres unmarked), the “hERG current change (%, negative = inhibition) at 10uM” value was -7.94%.
On to `O=C(Cc1ccc(-n2cnnn2)cc1)NC12CC3CC(CC(C3)C1)C2`, for which the “hERG current change (%, negative = inhibition) at 10uM” value is -36.7%.
Turning to `COc1ccc(Nc2cc(C(=O)NCc3ccco3)c3ccccc3n2)c(OC)c1`, the “hERG current change (%, negative = inhibition) at 10uM” value was 5.29%.
Turning to `COc1ccc2cc(C(=O)C3CCCN(C(=O)Cc4c(C)noc4C)C3)ccc2c1` (centres unmarked), the “hERG current change (%, negative = inhibition) at 10uM” value is -68.5%.
For `O=C(CSc1ccccc1)Nc1ccc(S(=O)(=O)NCC2CCCO2)cc1` (centres unmarked), the “hERG current change (%, negative = inhibition) at 10uM” value turned out to be 10.4%.
With `Cc1ccc(NC(=O)c2sc(N)nc2-c2ccccc2)cc1C` the figure was -2.56%; with `C=CCOc1cccc(C2C(C(=O)c3ccc(C)o3)=C(O)C(=O)N2c2nccs2)c1` (centres unmarked), 7.99%; with `COc1ccc(CNC(=O)c2ccc(Cn3nc(C)cc3C)o2)cc1`, 13.5%.
`CCCCN(C(=O)c1cnc(C)cn1)c1c(N)n(CCC)c(=O)[nH]c1=O`: the “hERG current change (%, negative = inhibition) at 10uM” value stood at 5.11%.
The result for `O=C(CCc1nnc(Cc2cccc(C(F)(F)F)c2)o1)NC1CC1` reads 32.2%.
The result for `COc1ccccc1CNC(=O)CCCNC(=O)Cn1cnc2sc(C)c(C)c2c1=O` reads 17.3%; that for `CCCc1nc2ccccc2c(=O)n1-c1ccc(C(=O)OCC)cc1`, 13.5%.

Source of the values: article PMC4336329 (PLoS ONE, 2015).
